Consider 48 compounds from PubChem BioAssay AID1963576 (National Center for Advancing Translational Sciences (NCATS), 2024).

The whole screen tested about 46,000 compounds, of which about 60 (0.1%) were called active. Not shown: some 3% with an inconclusive outcome. Calls come from the whole dose curve; as a rule, active = well fitted inhibition curve with a large enough effect; inconclusive = small, poorly fitted or top-dose-only effect; inactive = no such curve, though single readings can be large or run the other way. The list shows a part of the results.

A short description of this test: Primary qHTS assay for Inhibitors of ovarian cancer metastasis using an organotypic tumor microenvironment (TME) model.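 For activity change, negative = inhibition: plate controls were DMSO wells for no effect and tomatine positive control wells for full effect.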 Note: nearly all actives have a fitted effect of over 65% in size. The conditions noted are these: SKOV3ip1-GFP adhesion/invasion on 3D omental model, fluorescence; series mostly up to 45.8 µM; activity change, negative = inhibition: at the top concentration. The procedure, abridged: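 Primary human omental fibroblast/mesothelial 3D culture pre-formed 48 h. SKOV3ip1-GFP cells added with compounds (0.36-46 umol/L), incubated 2 h RT/16 h 37 C, fixed; GFP cells quantified at 488/509 nm.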
On the technique in general: Quantitative high-throughput screening tests each substance at several concentrations.
With `Fc1ccc(-c2nc(Nc3cccc(Cl)c3)nc3c2COc2ccccc2-3)cc1`, the “activity change, negative = inhibition” value was inactive: 2.66%.
Take `COc1cccc(-n2c(=O)c3c(C)c(C(=O)N(C)C)sc3n(Cc3ccc(F)cc3Cl)c2=O)c1`: the compound was called inactive.
Take `Cc1ccc(-n2ncc3c(NCCCN4CCOCC4)ncnc32)cc1`: the “activity change, negative = inhibition” value was inactive: 3.95%.
In the case of `CCOc1cc(C2C(C(=O)OC)=C(C)NC3=C2C(=O)c2ccccc23)cc(Cl)c1O` (stereo not drawn), the “activity change, negative = inhibition” value is inactive: -5.5%.
As for `O=C(CCC1N=C2c3ccccc3N=C(SCc3ccccc3F)N2C1=O)NC1CCCCC1` (stereo not drawn), the outcome was inactive.
For the compound `COc1ccc(NC(=O)C2Cc3ccccc3N2C(=O)c2ccccc2)c(OC)c1` (stereo not drawn), the “activity change, negative = inhibition” value is inactive: 1.32%.
With `CCOc1ccccc1NC(=O)c1cc2c(Cl)nc3ccccc3c2s1`, the “activity change, negative = inhibition” value is inactive: 1.19%.
`O=C(O)c1ccc2c(c1)nc(Nc1cccc(Cl)c1)c1ccncc12`: the “activity change, negative = inhibition” value was inactive: -4.8%.
Turning to `COc1ccc(N2CCN(S(=O)(=O)c3ccc4c(c3)CC(C)N4C(C)=O)CC2)cc1` (stereo not drawn), the “activity change, negative = inhibition” value was inactive: 9.71%.
In the case of `CCOC(=O)c1c(Nc2ccc(C)cc2)nnc(-c2ccccc2)c1-c1ccccc1`, the compound was called inactive.
On the same count and under the same terms, as for `Cn1c(=O)n(-c2ccc(F)c(Cl)c2)c(=O)c2sc3ccccc3c21`, the entry is “inactive”.
Consider `CCN(CCCNC(=O)c1c(C)oc2ncn(CC(C)C)c(=O)c12)Cc1ccccc1`, for which the “activity change, negative = inhibition” value was inactive: 4.14%.
In the case of `COc1ccc(N(Cc2cccs2)C(=O)COc2cccc(Cl)c2)cc1`, the compound was called inactive.
On to `Cc1ccc(Cl)cc1NC(=O)c1oc2c(c1C)-c1[nH]ncc1CC2`, for which the “activity change, negative = inhibition” value is inactive: 20.1%.
Regarding `CC1=C(C(=O)OC2CCCCCC2)C(c2c(F)cccc2Cl)CC(=O)N1` (stereo not drawn), the call was inactive.
Take `CCOC(=O)c1cnc2c(Cl)cccc2c1NCCN1CCOCC1`: the “activity change, negative = inhibition” value is inactive: -8.88%.
Regarding `COC(=O)CCSc1nc2sc3c(c2c(=O)n1Cc1ccccc1)CCC(C(C)(C)C)C3` (stereo not drawn), the outcome was inactive.
As for `CCC1CCCCN1C(=O)c1ccc2c(c1)N(Cc1cccc(Cl)c1)C(=O)c1ccccc1S2(=O)=O` (stereo not drawn), the compound was classed as inactive.
`CCc1ccccc1NS(=O)(=O)c1ccc(OC)c2ncccc12`: the “activity change, negative = inhibition” value was inactive: 5.17%.
Turning to `COc1ccc2c(C)c(CCC(=O)NCCc3ccccc3OC)c(=O)oc2c1`, the “activity change, negative = inhibition” value was inactive: -8.74%.
Turning to `CCOC(=O)c1ccccc1NC(=O)CSc1cn(CC(=O)N2CCCCC2)c2ccccc12`, the “activity change, negative = inhibition” value was inactive: -6.53%.
As to `O=C(Nc1ccc(Cl)cc1)C1CCCN(S(=O)(=O)c2ccc3[nH]c(=O)ccc3c2)C1` (stereo not drawn), the “activity change, negative = inhibition” value was inactive: -19%.
`Cc1cc(F)ccc1NC(=O)CCS(=O)(=O)c1ccc2c(c1)NC(=O)CO2`: the outcome was inactive.
`CCOc1cccc2cc(-c3nc(-c4ccccc4C)no3)c(=O)oc12`: the result was inactive.
For the compound `Cc1ccc(Oc2c(C(F)(F)F)oc3c(CN4CCCCC4)c(O)ccc3c2=O)cc1`, the “activity change, negative = inhibition” value is inactive: 0.627%.
As to `COc1cc(CN(C(=O)Nc2ccccc2)c2ccccn2)cc(OC)c1OC`, the “activity change, negative = inhibition” value was inactive: -0.114%.
On to `CCc1ccccc1NS(=O)(=O)c1ccc2[nH]cc(C(=O)N3CCCCC3)c(=O)c2c1`, for which the “activity change, negative = inhibition” value is inactive: 1.29%.
Regarding `CCC(C(=O)Nc1ccc(C(=O)OC)cc1)n1c(=O)c(-c2ccccc2NC(C)=O)nc2ccccc21` (stereo not drawn), the result was inactive.
As for `CCOC(=O)c1cccc(NC(=O)c2oc3c(c2C)-c2[nH]ncc2CC3)c1`, the “activity change, negative = inhibition” value is inactive: 12.5%.
With `Nc1ccn([C@@H]2O[C@H](CO)[C@@H](O)C2O)c(=O)n1` (stereo partly drawn), the “activity change, negative = inhibition” value was inactive: -20%.
As to `COc1ccc(NC(=O)CC2C(=O)N(c3ccc(F)cc3)C(=O)N2Cc2cccnc2)cc1` (stereo not drawn), the “activity change, negative = inhibition” value was inactive: 2.82%.
With `COc1cc(Cl)cn2c(-c3cccc(NC4CNC4)n3)cnc12`, the “activity change, negative = inhibition” value was inactive: 6.77%.
As to `Cc1nc2c(-c3ccccc3)c(C)nn2c(C)c1CCC(=O)NC(C)c1ccccc1` (stereo not drawn), the outcome was inactive.
For `COc1cccc(CNC(=O)C2CCCN(S(=O)(=O)c3ccc4c(ccn4C)c3)C2)c1` (stereo not drawn), the “activity change, negative = inhibition” value was inactive: -5.91%.
Regarding `CCCC(=O)Nc1cc(C)c(O)c(-c2nc3ncccc3o2)c1`, the call was inactive.
Consider `COc1ccc(Cl)cc1NC(=O)c1ccc2nc(Cc3ccccc3)oc2c1`, for which the “activity change, negative = inhibition” value was inactive: -4.28%.
On to `Cc1ccc(NC(=O)c2cc(S(=O)(=O)NCCC3=CCCCC3)ccc2F)cc1F`, for which the “activity change, negative = inhibition” value was inactive: 1.39%.
As for `CCCCNC(=O)C1CCCN(Cc2nc(-c3ccc(Cl)cc3)oc2C)C1` (stereo not drawn), the “activity change, negative = inhibition” value was inactive: 2.19%.
For `CCc1ccc(C(=O)c2cn(CC(=O)Nc3ccc(F)c(F)c3)c3cc(OC)c(OC)cc3c2=O)cc1`, the compound was called inactive.
For `Cc1ccc(-n2nc(C(=O)N3CCN(c4cc(Cl)ccc4C)CC3)c(=O)n(C)c2=O)cc1`, the “activity change, negative = inhibition” value is inactive: -20.7%.
On to `Cc1cc(NC(=O)c2ccc(Br)o2)cc(-c2nc3ccccc3o2)c1O`, for which the compound was classed as inactive.
Turning to `Cc1c(Cl)cccc1NC(=O)CSc1ncnc2c1sc1ccccc12`, the “activity change, negative = inhibition” value was inactive: 0.319%.
The same measure, in the same setting: under `Cc1cccc(CNC(=O)c2oc3c(c2C)-c2nn(Cc4ccccc4Cl)cc2CC3)c1` stands inactive: 6.63%; under `COc1ccc(NC(=O)C(NS(=O)(=O)c2ccc3c(c2)CCCC(=O)N3)C(C)C)c(OC)c1` (stereo not drawn), inactive: 4.92%; under `Cc1cc(C)c(NC(=O)CSc2ccnc(=O)[nH]2)c(C)c1`, inactive: -4.92%.
On to `COc1cc(NC(=O)CCn2c(-c3ccccc3)cc(C(C)=O)c2C)cc(OC)c1`, for which the “activity change, negative = inhibition” value was inactive: 14.6%.
For the compound `Cc1ccc(-n2ncc3c(N4CCCCCC4)ncnc32)cc1`, the “activity change, negative = inhibition” value is inactive: 2.96%.
For the compound `O=C(COc1ccccc1)NCc1ccc2c(c1)CCN2C(=O)c1ccc(F)cc1`, the “activity change, negative = inhibition” value is inactive: 0.0558%.
